{
  "source": "PubChem BioAssay AID894",
  "about": "(National Center for Advancing Translational Sciences (NCATS), 2007)",
  "note": "Among all 150,000 compounds or so, about 6,500 (4.3%) were called active. The inconclusive results got no clear call from the source; some entries with a clear call stand among them for comparison. Calls come from the whole dose curve; as a rule, active = well fitted inhibition curve with a large enough effect (not every such curve was filed as active); inconclusive = small, poorly fitted or top-dose-only effect, or another doubt; inactive = no such curve, though single readings can be large or run the other way. Potencies of inconclusive entries are left out as doubtful fits.",
  "data": [
    {"target": "15-hydroxyprostaglandin dehydrogenase [NAD(+)] (Homo sapiens) (UniProt P15428)", "sequence (P15428 whole entry, looked up)": "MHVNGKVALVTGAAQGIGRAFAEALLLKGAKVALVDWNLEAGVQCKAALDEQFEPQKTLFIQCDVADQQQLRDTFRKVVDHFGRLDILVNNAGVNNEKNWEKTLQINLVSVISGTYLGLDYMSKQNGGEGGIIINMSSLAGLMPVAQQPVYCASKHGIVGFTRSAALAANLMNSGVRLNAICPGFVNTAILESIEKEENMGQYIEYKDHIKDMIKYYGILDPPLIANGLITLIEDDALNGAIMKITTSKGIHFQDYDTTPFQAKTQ", "experiment": "qHTS Assay for Inhibitors of HPGD (15-Hydroxyprostaglandin Dehydrogenase); note: potency is the fitted concentration of half-maximal effect; tags give direction and shape of the fitted curve; for activity change, negative = inhibition: % is set by controls: 0 for no effect and ±100 for the full control effect", "conditions": "purified HPGD, NADH fluorescence kinetic, PGE2 substrate; activity change, negative = inhibition: hits give low values", "procedure,_shortened": "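NADH formation kinetics: reaction with 30 uM PGE2 and 1 mM NAD+ (final), 20 nM enzyme, Tris-HCl pH 8 with Tween 20, after 15 min compound preincubation at room temperature. Fluorescence change, last versus first of five reads.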", "values": [
      {"molecule": "CC1CCCN(C(=O)CCl)C1", "note": "(configuration not stated)", "activity change, negative = inhibition": "inactive: -6.03%"},
      {"molecule": "O=C(OCCCCN1C(=O)c2ccccc2C1=O)c1ccc(Br)o1", "Potency": "active: 15.8 µM"},
      {"molecule": "O=P1(Nc2ccc(F)cc2)COc2ccccc2OC1", "Potency": "active: 1.12 µM"},
      {"molecule": "NC(=O)c1cc([N+](=O)[O-])cc([N+](=O)[O-])c1", "activity change, negative = inhibition": "inactive: 0.759%"},
      {"molecule": "Cc1ccc(N2C(=O)NC(=O)/C(=C\\c3ccc(N4CCOCC4)cc3)C2=O)cc1", "Potency": "active: 35.5 µM"},
      {"molecule": "O=c1[nH]c(=O)n(Cc2ccccc2)c(O)c1C=NCCN1CCNCC1", "Potency": "active: 22.4 µM"},
      {"molecule": "Cc1cc(Cl)ccc1OCCCC(=O)NCc1cccs1", "Potency": "active: 31.6 µM"},
      {"molecule": "Clc1cncc(N2CCNCC2)n1", "Potency": "inconclusive [inhibitor, partial curve]"},
      {"molecule": "Cc1cccc(-n2c(-c3cccs3)nc3ccccc3c2=O)c1", "Potency": "inconclusive [inhibitor, single point]"},
      {"molecule": "c1ccc(-c2ccc(C(c3ccccc3)n3ccnc3)cc2)cc1", "note": "(configuration not stated)", "Potency": "inconclusive [inhibitor, partial curve]", "activity change, negative = inhibition": "inactive: -25.4%"},
      {"molecule": "Cc1ccc(-n2c(O)c(/C=N/NC(=O)c3ccncc3)c(=O)[nH]c2=O)cc1", "Potency": "inconclusive [inhibitor, partial curve]"},
      {"molecule": "Cc1nn(C)c(C)c1-c1cccc2c1CCC(N(C)C)C2", "note": "(configuration not stated)", "Potency": "inconclusive [inhibitor, partial curve]"},
      {"molecule": "Cc1ccc(/C=C2/C(=O)NC(=O)N(CC3CCCO3)C2=O)s1", "note": "(configuration not stated)", "Potency": "active: 14.1 µM"},
      {"molecule": "Cc1cccc(NC(=O)c2cccc(NS(=O)(=O)c3ccc(Cl)cc3)c2)c1", "Potency": "active: 12.6 µM"},
      {"molecule": "Cc1cc(OCc2ccc([N+](=O)[O-])cc2)c2c3c(c(=O)oc2c1)CCCC3", "Potency": "inconclusive [inhibitor, single point]"},
      {"molecule": "CCN(CC)CCNC(=O)c1nn(-c2ccc(C)cc2)c(=O)c2c1c1ccccc1n2C", "Potency": "inconclusive [inhibitor, single point]"},
      {"molecule": "CCC(C)C1N=C(c2ccccc2)c2cc(Cl)ccc2N(CC(=O)NCc2ccco2)C1=O", "note": "(configuration not stated)", "activity change, negative = inhibition": "inactive: -3.23%"},
      {"molecule": "CC[C@@]1(O)C(=O)OCc2c1cc1n(c2=O)-c2cc3ccccc3nc2C1", "Potency": "inconclusive [inhibitor, full curve]"},
      {"molecule": "Cc1cc(C)cc(C(=O)OC2C[C@H]3CC[C@@H](C2)N3C)c1", "note": "(some centres not stated)", "activity change, negative = inhibition": "inactive: -2.66%"},
      {"molecule": "Cc1ccc(N=Cc2c(O)n(C)c(=O)n(C)c2=O)nc1", "Potency": "inconclusive [inhibitor, partial curve]"},
      {"molecule": "CC(C)c1ccc(C(O)(C(=O)O)c2ccc(C(C)C)cc2)cc1", "activity change, negative = inhibition": "inactive: -0.521%"}
    ]}
  ]
}
